According to PubChem BioAssay AID624417 (National Center for Advancing Translational Sciences (NCATS), 2012):
In all, about 410,000 compounds went through this assay and about 6,400 (1.6%) were called active. Inconclusive means that the source gave no clear call. Such entries were picked first, then a sample of the others. Calls come from the whole dose curve; as a rule, active = well fitted inhibition curve with a large enough effect; inconclusive = small, poorly fitted or top-dose-only effect; inactive = no such curve, though single readings can be large or run the other way. Potencies of inconclusive entries are doubtful fits and often do not repeat.

target: Glucagon-like peptide 1 receptor (Homo sapiens) (UniProt P43220); assay: qHTS of GLP-1 Receptor Inverse Agonists (Inhibition Mode); details: HEK293 GLP-1R CRE-luciferase, luminescence, 24 h, GLP-1R form is constitutively active; activity change, negative = inhibition: at 38.3 µM (top of the series) unless noted; note: nearly all actives have a fitted effect of over 55% in size
Outline: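 Using stably transfected HEK293 (constitutively active GLP-1R, cAMP-luciferase reporter), compounds were incubated 24 hr and luciferase measured by luminescence.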
% is set by controls: 0 for no effect and ±100 for the full control effect; potency is the fitted concentration of half-maximal effect; tags give direction and shape of the fitted curve.

Sequence of UniProt P43220 (P43220 whole entry, looked up): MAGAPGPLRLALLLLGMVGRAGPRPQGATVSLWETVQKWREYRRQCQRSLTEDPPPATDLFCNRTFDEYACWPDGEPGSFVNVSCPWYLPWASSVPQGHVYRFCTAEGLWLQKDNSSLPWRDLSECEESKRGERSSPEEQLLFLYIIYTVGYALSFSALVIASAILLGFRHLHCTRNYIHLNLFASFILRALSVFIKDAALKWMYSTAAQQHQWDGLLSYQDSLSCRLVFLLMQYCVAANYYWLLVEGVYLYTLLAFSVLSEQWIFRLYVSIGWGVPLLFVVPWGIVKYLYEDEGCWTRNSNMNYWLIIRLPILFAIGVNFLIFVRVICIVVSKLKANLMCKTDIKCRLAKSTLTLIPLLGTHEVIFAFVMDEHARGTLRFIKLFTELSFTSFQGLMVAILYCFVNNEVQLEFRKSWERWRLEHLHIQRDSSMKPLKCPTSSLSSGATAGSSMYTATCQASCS

Potency, active:
CC(C(=O)O)c1ccc(N2Cc3ccccc3C2=O)cc1 (stereo unspecified) 6.31 µM

Potency, inconclusive:
Fc1cccc(Cc2noc(CN3CCCCC3CCc3ccccn3)n2)c1 (stereo unspecified) 28.2 µM [inhibitor, single point]
CC(C(=O)NC(=O)NC1CCCCC1)N(C)CC(=O)Nc1ccc(F)c(F)c1F (stereo unspecified) 11.2 µM [inhibitor, partial curve, poor fit]
Cc1c(NC(=O)/C=C/c2cn(-c3ccccc3)nc2-c2ccccc2)c(=O)n(-c2ccccc2)n1C 0.501 µM [inhibitor, full curve, poor fit]
CN(CC(=O)Nc1ccc(Cl)c(C(F)(F)F)c1)C(=O)C1CCCO1 (stereo unspecified) 17.8 µM [inhibitor, partial curve, poor fit]
CCCCN(CC)CCCNC(=O)c1cc2cc3ccc(OC)cc3nc2o1 1.58 µM [inhibitor, partial curve, poor fit]
Fc1cccc(Cc2c(-c3ccc(Cl)cc3)nc3ccc(Cl)cn23)c1 2 µM [inhibitor, full curve, poor fit]
CC(=O)Nc1cccc(NC(=O)C(=O)NCC(c2ccco2)N2CCc3ccccc32)c1 (stereo unspecified) 28.2 µM [inhibitor, single point]
O=C(CN1c2ccccc2S(=O)(=O)c2ccccc21)NCc1ccccc1 10 µM [inhibitor, partial curve, poor fit]
CCOC(=O)C=C(OC(=O)c1ccc(OC)cc1)c1ccccc1 10 µM [inhibitor, partial curve, poor fit]
COc1ccc(OC)c(CN2CCN(CCc3ccccc3)C(CCO)C2)c1 (stereo unspecified) 12.6 µM [inhibitor, single point]
Cc1ccc(NC(=O)Cc2cc(C(=O)O)c3ccccc3n2)c(C)c1 14.1 µM [inhibitor, partial curve, poor fit]
Brc1cccc(-c2nc3c4ccccc4ccn3c2Cc2ccccc2)c1 6.31 µM [inhibitor, partial curve, poor fit]
CC(=O)Nc1cccc(NC(=S)Nc2ccc(F)c(Cl)c2)c1 11.2 µM [inhibitor, single point]
CNS(=O)(=O)c1cccc(C(=O)OCC(=O)c2cc(C)n(-c3ccc4c(c3)OCO4)c2C)c1 28.2 µM [inhibitor, single point]
Cc1c(NC(=O)/C(C#N)=C/c2ccc(-c3ccccc3Cl)o2)c(=O)n(-c2ccccc2)n1C 2.24 µM [inhibitor, partial curve, poor fit]
COc1ccc(NC(=O)NC(C)c2c(-n3cccc3)sc(C)c2C)cc1OC (stereo unspecified) 10 µM [inhibitor, single point]
CCN(CC)CCCNC(=O)c1ccc2c(c1)sc1nc(-c3ccc(C)cc3)cn12 2 µM [inhibitor, full curve, poor fit]
COCCn1c(-c2ccc(Br)cc2)csc1=Nc1cccnc1 14.1 µM [inhibitor, single point]
CCN1C(=S)N[C@@H](CCc2ccccc2)C(C(=O)OC)=C1C 11.2 µM [inhibitor, partial curve, poor fit]
CCCCc1nc(NCCN)c(C#N)c2c1CSC(C)(C)C2 31.6 µM [inhibitor, partial curve, poor fit]
CC(c1ccccc1)C1CC(=O)N(Cc2ccccc2)C1=O (stereo unspecified) 28.2 µM [inhibitor, partial curve, poor fit]
COc1cc(-c2noc(C)c2/C=C/c2ccc(N)cc2)cc(OC)c1OC 0.316 µM [inhibitor, full curve, poor fit]
COc1ccc(Br)cc1CN(C)CC(=O)NCc1ccc(F)cc1 10 µM [inhibitor, partial curve, poor fit]
COc1cccc(NC(=S)NCCC(c2ccccc2)c2ccccc2)c1 0.501 µM [inhibitor, full curve, poor fit]
Nc1nc(Nc2cccc(F)c2)nc2ccccc12 12.6 µM [inhibitor, single point]
Cc1cc(S(=O)(=O)NC2CCN(Cc3ccccc3)CC2)c(C)cc1Cl 3.55 µM [inhibitor, full curve, poor fit]
Cc1[nH]c(=O)c(C(=O)/C=C/c2ccccc2F)c2c1CCCC2 6.31 µM [inhibitor, partial curve, poor fit]
COc1ccc(NC(=O)C(c2cc3c(cc2[N+](=O)[O-])OCO3)N(C)Cc2ccccc2)cc1 (stereo unspecified) 10 µM [inhibitor, partial curve, poor fit]
CC(O/N=C(\N)c1ccccc1)C(=O)Nc1cccc(C(F)(F)F)c1 (stereo unspecified) 28.2 µM [inhibitor, single point]
COCC(C)n1c(C)cc(C(=O)CSc2nnc(N)s2)c1C (stereo unspecified) 10 µM [inhibitor, partial curve, poor fit]
O=C1C=C(c2ccc(Br)c3ccccc23)C[C@@H](c2ccc3c(c2)OCO3)C1 28.2 µM [inhibitor, single point]
CCOC(=O)c1c(C)[nH]c(C)c1S(=O)(=O)N1CCN(c2cc(Cl)ccc2C)CC1 28.2 µM [inhibitor, single point]
O=C(CNC(=O)c1cccc(S(=O)(=O)N2CCc3ccccc32)c1)Nc1ccc(F)c(F)c1F 5.62 µM [inhibitor, partial curve, poor fit]
CCN(CC)S(=O)(=O)c1ccc(NC(=O)CCC2CCCCC2)cc1 10 µM [inhibitor, partial curve, poor fit]
CCOc1cccc2sc(N(CCCN(C)C)C(=O)c3ccc(S(=O)(=O)N(C)Cc4ccccc4)cc3)nc12 14.1 µM [inhibitor, partial curve, poor fit]
COc1cc(CN2CCN(C(c3ccccc3)c3ccccc3)CC2)cc(OC)c1OC 11.2 µM [inhibitor, partial curve, poor fit]
CC(C)(C)c1cc2cccnc2n1Cc1ccccc1 8.91 µM [inhibitor, partial curve]
COc1ccc(NS(=O)(=O)c2cc(NC(=O)c3cnc(C)cn3)ccc2N2CCCCC2)cc1 11.2 µM [inhibitor, partial curve, poor fit]
Clc1cccc(C2CCN(Cc3nc(CC4CC4)no3)C2)c1 (stereo unspecified) 14.1 µM [inhibitor, single point]
COc1ccc(S(=O)(=O)/N=C2\C=C(NS(=O)(=O)c3ccccc3)C(=O)c3ccccc32)cc1 28.2 µM [inhibitor, single point]
CCOc1ccc(C(=O)Nc2ccc3nc(N(CC)CC)cc(C)c3c2)cc1 8.91 µM [inhibitor, partial curve, poor fit]
O=C(CCC1CCCCC1)NCCS(=O)(=O)N1CCN(c2ccc(F)cc2)CC1 28.2 µM [inhibitor, single point]
Cc1ccc(C(=O)Nc2ccccc2Oc2ccccc2)o1 10 µM [inhibitor, partial curve, poor fit]
COc1ccc([N+](=O)[O-])cc1N(CC(O)CN1CCCC1)S(=O)(=O)c1ccc(C)cc1 (stereo unspecified) 28.2 µM [inhibitor, single point]
CC1(C)CC(=O)C2=C(C1)N1C(=C(C#N)C2c2ccc(Cl)cc2)N=C(N)c2ccccc21 (stereo unspecified) 12.6 µM [inhibitor, partial curve, poor fit]
CCOC(=O)c1c(-c2ccc(C)cc2)csc1NC(=O)CCN1CCOCC1 28.2 µM [inhibitor, single point]

Activity change, negative = inhibition, inactive:
Cc1c(NC(=O)Cc2ccc(Cl)cc2)cccc1-c1nc2cccnc2s1 0.632%
CN1CCC(N2CCN(C3CN(CCc4ccccc4)S(=O)(=O)C3)CC2)CC1 (stereo unspecified) -21.8%
CCOC(=O)c1c(C)[nH]c(C)c1S(=O)(=O)NCC(=O)Nc1cccc(Cl)c1 -17%
C#CCN1C=CC(=O)[C@@H](OC(=O)Nc2ccc(OC)cc2)[C@H]1c1ccccc1Br 0.251%
O=C(CC1C(=O)NCCN1Cc1c(F)cccc1Cl)NCCCn1cccn1 (stereo unspecified) 12.2%
COCCNC(=S)N(C)[C@H]1C[C@H]2c3cc(-c4ccccc4)ccc3CCN2C(=O)[C@H]1[C@H](C)O 17.5%
Cc1ccccc1N=Cc1cccc(O)c1O 38.9%
CC(C)(C)NC(=O)C(c1ccc(F)cc1)N(CC1CCCO1)C(=O)CCC(=O)Nc1ccccn1 (stereo unspecified) -9.49%
CCc1cccc(NC(=O)c2ccc3c(c2)N(Cc2cccc(Cl)c2)C(=O)c2ccccc2S3=O)c1 (stereo unspecified) 9.36%
COc1ccc(OC)c(-c2cc(C(=O)NCc3cccs3)no2)c1 0%
COc1ccc(-c2cc(C(F)(F)F)nc(SCCC(=O)N3CCN(C)CC3)n2)cc1 2.18%
Cn1c(=O)oc2cc(S(=O)(=O)NC(Cc3ccccc3)C(=O)Nc3ccc(F)c(Cl)c3)ccc21 (stereo unspecified) 16.1%
CC(=O)N1CCC2(CC1)CC(=O)c1cc(OCC(=O)NCc3ccco3)ccc1O2 28.3%

Activity change, negative = inhibition, inconclusive:
CCCn1c2ccccc2c2cnn(CC(=O)NCCN(CC)CC)c(=O)c21 -83.4% [inhibitor]
